# This is one part of the list.
# B1: Jacalin (Artocarpus integrifolia) (protein)
# chain: MAYSSLLSLSVLALLFSISSADTRKWFLANGINQNPIGIIEAAVGVSEDLLNLNGMEAKNDEQSGISQTVIVGPWGAKVSTSSNGKAFDDGAFTGIREINLSYNKETAIGDFQVVYDLNGSPYVGQNHKSFITGFTPVKISLDFPSEYIMEVSGYTGNVSGYVVVRSLTFKTNKKTYGPYGVTSGTPFNLPIENGLIVGFKGSIGYWLDYFSMYLSL
# Legend:
# Test in all cases: glycan array binding signal (z-score within array); higher = stronger binding
# Conditions in all cases: glycan notation: IUPAC condensed, linker removed
# [1] = target: Gal(b1-4)GlcNAc(b1-3)Gal(b1-4)GlcNAc(b1-3)Gal(b1-4)GlcNAc(b1-3)Gal(b1-4)GlcNAc(b1-3)Gal(b1-4)GlcNAc(b1-2)Man(a1-3)[Gal(b1-4)GlcNAc(b1-3)Gal(b1-4)GlcNAc(b1-3)Gal(b1-4)GlcNAc(b1-3)Gal(b1-4)GlcNAc(b1-3)Gal(b1-4)GlcNAc(b1-2)Man(a1-6)]Man(b1-4)GlcNAc(b1-4)GlcNAc
# Summary of the method: (§1)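 From the Consortium for Functional Glycomics database, 3228 arrays were curated, keeping only those whose protein sequence was available. Binding is given as a within-array Z-score averaged across arrays sharing a protein sequence and across linkers. Negative Z-scores can be read as non-binding.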
# [2] = target: Gal(b1-4)GlcNAc(b1-3)Gal(b1-4)GlcNAc(b1-3)Gal(b1-4)GlcNAc(b1-3)Gal(b1-4)GlcNAc(b1-3)Gal(b1-4)GlcNAc(b1-2)Man(a1-3)[Gal(b1-4)GlcNAc(b1-3)Gal(b1-4)GlcNAc(b1-3)Gal(b1-4)GlcNAc(b1-3)Gal(b1-4)GlcNAc(b1-3)Gal(b1-4)GlcNAc(b1-2)Man(a1-6)]Man(b1-4)GlcNAc(b1-4)[Fuc(a1-6)]GlcNAc
# Summary of the method: as §1
# [3] = target: Gal(b1-4)GlcNAc(b1-3)Gal(b1-4)GlcNAc(b1-3)Gal(b1-4)GlcNAc(b1-3)Gal(b1-4)GlcNAc(b1-3)Gal(b1-4)GlcNAc(b1-2)[Gal(b1-4)GlcNAc(b1-3)Gal(b1-4)GlcNAc(b1-3)Gal(b1-4)GlcNAc(b1-3)Gal(b1-4)GlcNAc(b1-3)Gal(b1-4)GlcNAc(b1-6)]Man(a1-6)[Gal(b1-4)GlcNAc(b1-3)Gal(b1-4)GlcNAc(b1-3)Gal(b1-4)GlcNAc(b1-3)Gal(b1-4)GlcNAc(b1-3)Gal(b1-4)GlcNAc(b1-2)Man(a1-3)]Man(b1-4)GlcNAc(b1-4)[Fuc(a1-6)]GlcNAc
# Summary of the method: as §1
# [4] = target: Gal(b1-4)GlcNAc(b1-3)Gal(b1-4)GlcNAc(b1-3)Gal(b1-4)GlcNAc(b1-3)Gal(b1-4)GlcNAc(b1-3)Gal(b1-4)GlcNAc(b1-3)Gal(b1-4)GlcNAc(b1-2)Man(a1-3)[Gal(b1-4)GlcNAc(b1-3)Gal(b1-4)GlcNAc(b1-3)Gal(b1-4)GlcNAc(b1-3)Gal(b1-4)GlcNAc(b1-3)Gal(b1-4)GlcNAc(b1-3)Gal(b1-4)GlcNAc(b1-2)Man(a1-6)]Man(b1-4)GlcNAc(b1-4)GlcNAc
# Summary of the method: as §1
# [5] = target: Gal(b1-4)GlcNAc(b1-3)Gal(b1-4)GlcNAc(b1-3)GalNAc
# Summary of the method: as §1
# [6] = target: Gal(b1-4)GlcNAc(b1-3)Gal(b1-4)GlcNAc(b1-3)[Gal(b1-4)GlcNAc(b1-3)Gal(b1-4)GlcNAc(b1-6)]GalNAc
# Summary of the method: as §1
# [7] = target: Gal(b1-4)GlcNAc(b1-3)Gal(b1-4)GlcNAc(b1-6)[Gal(b1-3)]GalNAc
# Summary of the method: as §1
# [8] = target: Gal(b1-4)GlcNAc(b1-3)Gal(b1-4)[Fuc(a1-3)]GlcNAc(b1-3)Gal(b1-4)[Fuc(a1-3)]GlcNAc
# Summary of the method: as §1
# [9] = target: Gal(b1-4)GlcNAc(b1-3)GalNAc
# Summary of the method: as §1
# [10] = target: Gal(b1-4)GlcNAc(b1-3)[Fuc(a1-3)GlcNAc(b1-6)]Gal(b1-4)Glc
# Summary of the method: as §1
# [11] = target: Gal(b1-4)GlcNAc(b1-3)[Gal(b1-4)GlcNAc(b1-6)]Gal(b1-4)GlcNAc
# Summary of the method: as §1
# [12] = target: Gal(b1-4)GlcNAc(b1-3)[Gal(b1-4)GlcNAc(b1-6)]GalNAc
# Summary of the method: as §1
# [13] = target: Gal(b1-4)GlcNAc(b1-3)[GlcNAc(b1-6)]Gal(b1-4)GlcNAc
# Summary of the method: as §1
# [14] = target: Gal(b1-4)GlcNAc(b1-6)Gal(b1-4)GlcNAc
# Summary of the method: as §1
# [15] = target: Gal(b1-4)GlcNAc(b1-6)Gal(b1-4)GlcNAc(b1-6)GalNAc
# Summary of the method: as §1
# [16] = target: Gal(b1-4)GlcNAc(b1-6)GalNAc
# Summary of the method: as §1
# [17] = target: Gal(b1-4)GlcNAc(b1-6)[Gal(b1-3)]GalNAc
# Summary of the method: as §1
# [18] = target: Gal(b1-4)GlcNAc(b1-6)[Gal(b1-4)GlcNAc(b1-3)]GalNAc
# Summary of the method: as §1
# Gal(b1-4)GlcNAc6P = target: Gal(b1-4)GlcNAc6P
# Summary of the method: as §1
# Gal(b1-6)Gal = target: Gal(b1-6)Gal
# Summary of the method: as §1
# Gal3S(b1-3)GalNAc = target: Gal3S(b1-3)GalNAc
# Summary of the method: as §1
# Gal3S(b1-3)GlcNAc = target: Gal3S(b1-3)GlcNAc
# Summary of the method: as §1
# [19] = target: Gal3S(b1-3)[Fuc(a1-4)]GlcNAc
# Summary of the method: as §1
# Gal3S(b1-4)Glc = target: Gal3S(b1-4)Glc
# Summary of the method: as §1
# Gal3S(b1-4)Glc6S = target: Gal3S(b1-4)Glc6S
# Summary of the method: as §1
# Gal3S(b1-4)GlcNAc = target: Gal3S(b1-4)GlcNAc
# Summary of the method: as §1
# Gal3S(b1-4)GlcNAc6S = target: Gal3S(b1-4)GlcNAc6S
# Summary of the method: as §1
# [20] = target: Gal3S(b1-4)[Fuc(a1-3)]Glc6S
# Summary of the method: as §1
# [21] = target: Gal3S(b1-4)[Fuc(a1-3)]GlcNAc
# Summary of the method: as §1
# [22] = target: Gal3S(b1-4)[Fuc(a1-3)]GlcNAc6S
# Summary of the method: as §1
# Gal3S4S(b1-4)GlcNAc = target: Gal3S4S(b1-4)GlcNAc
# Summary of the method: as §1
# Gal3S6S(b1-4)GlcNAc = target: Gal3S6S(b1-4)GlcNAc
# Summary of the method: as §1
# Gal3S6S(b1-4)GlcNAc6S = target: Gal3S6S(b1-4)GlcNAc6S
# Summary of the method: as §1
# Gal4S(b1-4)GlcNAc = target: Gal4S(b1-4)GlcNAc
# Summary of the method: as §1
# Gal4S6S(b1-4)GlcNAc = target: Gal4S6S(b1-4)GlcNAc
# Summary of the method: as §1
# Gal6P(b1-4)GlcNAc = target: Gal6P(b1-4)GlcNAc
# Summary of the method: as §1
# Gal6S(b1-3)GlcNAc = target: Gal6S(b1-3)GlcNAc
# Summary of the method: as §1
# Gal6S(b1-3)GlcNAc6S = target: Gal6S(b1-3)GlcNAc6S
# Summary of the method: as §1
# Gal6S(b1-4)Glc = target: Gal6S(b1-4)Glc
# Summary of the method: as §1
# Gal6S(b1-4)Glc6S = target: Gal6S(b1-4)Glc6S
# Summary of the method: as §1
# Gal6S(b1-4)GlcNAc = target: Gal6S(b1-4)GlcNAc
# Summary of the method: as §1
# Gal6S(b1-4)GlcNAc6S = target: Gal6S(b1-4)GlcNAc6S
# Summary of the method: as §1
# GalNAc(a1-3)Gal = target: GalNAc(a1-3)Gal
# Summary of the method: as §1
# GalNAc(a1-3)GalNAc = target: GalNAc(a1-3)GalNAc
# Summary of the method: as §1
# [23] = target: GalNAc(a1-3)GalNAc(a1-3)Gal(a1-4)Gal(b1-4)GlcNAc
# Summary of the method: as §1
binder,measurement,setting,value
B1,glycan array binding signal (z-score),[1],-0.257
same,glycan array binding signal (z-score),[2],0.147
same,glycan array binding signal (z-score),[3],-0.06
same,glycan array binding signal (z-score),[4],-0.235
same,glycan array binding signal (z-score),[5],1.14
same,glycan array binding signal (z-score),[6],-0.025
same,glycan array binding signal (z-score),[7],0.001
same,glycan array binding signal (z-score),[8],-0.244
same,glycan array binding signal (z-score),[9],1.83
same,glycan array binding signal (z-score),[10],-0.219
same,glycan array binding signal (z-score),[11],-0.246
same,glycan array binding signal (z-score),[12],-0.347
same,glycan array binding signal (z-score),[13],-0.253
same,glycan array binding signal (z-score),[14],-0.256
same,glycan array binding signal (z-score),[15],-0.354
same,glycan array binding signal (z-score),[16],-0.256
same,glycan array binding signal (z-score),[17],-0.262
same,glycan array binding signal (z-score),[18],-0.26
same,glycan array binding signal (z-score),Gal(b1-4)GlcNAc6P,-0.256
same,glycan array binding signal (z-score),Gal(b1-6)Gal,-0.268
same,glycan array binding signal (z-score),Gal3S(b1-3)GalNAc,1.89
same,glycan array binding signal (z-score),Gal3S(b1-3)GlcNAc,-0.253
same,glycan array binding signal (z-score),[19],-0.258
same,glycan array binding signal (z-score),Gal3S(b1-4)Glc,-0.262
same,glycan array binding signal (z-score),Gal3S(b1-4)Glc6S,-0.256
same,glycan array binding signal (z-score),Gal3S(b1-4)GlcNAc,-0.245
same,glycan array binding signal (z-score),Gal3S(b1-4)GlcNAc6S,-0.341
same,glycan array binding signal (z-score),[20],-0.154
same,glycan array binding signal (z-score),[21],-0.254
same,glycan array binding signal (z-score),[22],-0.26
same,glycan array binding signal (z-score),Gal3S4S(b1-4)GlcNAc,-0.253
same,glycan array binding signal (z-score),Gal3S6S(b1-4)GlcNAc,-0.254
same,glycan array binding signal (z-score),Gal3S6S(b1-4)GlcNAc6S,-0.293
same,glycan array binding signal (z-score),Gal4S(b1-4)GlcNAc,-0.313
same,glycan array binding signal (z-score),Gal4S6S(b1-4)GlcNAc,-0.269
same,glycan array binding signal (z-score),Gal6P(b1-4)GlcNAc,-0.334
same,glycan array binding signal (z-score),Gal6S(b1-3)GlcNAc,-0.288
same,glycan array binding signal (z-score),Gal6S(b1-3)GlcNAc6S,-0.276
same,glycan array binding signal (z-score),Gal6S(b1-4)Glc,-0.258
same,glycan array binding signal (z-score),Gal6S(b1-4)Glc6S,-0.253
same,glycan array binding signal (z-score),Gal6S(b1-4)GlcNAc,-0.294
same,glycan array binding signal (z-score),Gal6S(b1-4)GlcNAc6S,-0.283
same,glycan array binding signal (z-score),GalNAc(a1-3)Gal,0.257
same,glycan array binding signal (z-score),GalNAc(a1-3)GalNAc,-0.275
same,glycan array binding signal (z-score),[23],-0.266
